Test results published in the supplement of paper PMC3334620.
The full ranking holds about 33,000 sequences; the median of “E-score (-0.5 to 0.5)” is about -0.016, and the highest 2% start at about 0.32. Some of the results follow.

molecular target: T1, Stp1 (UniProt B3LFK1); experiment: PBM E-score (8-mer binding enrichment) (E-score (-0.5 to 0.5)); higher = stronger / more preferred TF binding; most listed sequences are background and not binding sites; conditions: protein concentration: 200 nM; construct: GST-full length
T1 sequence: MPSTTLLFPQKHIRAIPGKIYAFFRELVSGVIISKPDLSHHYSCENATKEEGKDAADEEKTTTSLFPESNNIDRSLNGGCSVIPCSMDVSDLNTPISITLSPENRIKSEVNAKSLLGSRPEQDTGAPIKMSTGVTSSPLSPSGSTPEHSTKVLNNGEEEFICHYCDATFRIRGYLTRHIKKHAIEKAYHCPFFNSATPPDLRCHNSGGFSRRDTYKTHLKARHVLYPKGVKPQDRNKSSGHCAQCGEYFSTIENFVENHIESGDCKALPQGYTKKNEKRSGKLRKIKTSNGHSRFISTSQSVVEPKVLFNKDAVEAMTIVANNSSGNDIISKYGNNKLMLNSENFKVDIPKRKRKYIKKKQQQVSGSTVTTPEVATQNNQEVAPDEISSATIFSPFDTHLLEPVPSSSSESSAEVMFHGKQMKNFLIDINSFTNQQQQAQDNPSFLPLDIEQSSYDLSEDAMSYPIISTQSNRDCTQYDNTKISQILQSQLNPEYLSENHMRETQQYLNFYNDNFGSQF
How it was run: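 Universal all-10-mer Agilent arrays, fresh or stripped once, were converted to double-stranded form by primer extension. GST-tagged yeast transcription factors from PURExpress in vitro transcription/translation, full-length or DNA-binding domain only, were applied at about 100-200 nM and detected with fluorescent anti-GST. After masliner normalisation, the Universal PBM Analysis Suite scored each ungapped eight-base word together with its reverse complement by E-score.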

| Sequence | PBM E-score |
| --- | --- |
| AAATCATA | 0.184 |
| CTGGGCTA | -0.272 |
| CTATTTCA | 0.145 |
| CGCGCTCA | 0.182 |
| ATACGACC | -0.13 |
| AAGCGAAC | -0.0555 |
| GTCGGTTA | -0.0125 |
| CGGGCGAA | -0.0179 |
| GGGCGAAC | 0.0424 |
| CACCGGAC | -0.0582 |
| CATCTTCC | 0.123 |
| ACCGTCGT | -0.0506 |
| ACATTGGC | -0.158 |
| CAGGTTAC | -0.139 |
| AACCATGA | -0.0217 |
| AGGCGAAA | 0.102 |
| TAGCGATA | 0.0291 |
| CAGGATGG | -0.1 |
| CGGAGAGA | 0.00412 |
| ACACACTA | -0.0331 |
| GAATCCAA | -0.0781 |
| GACGGGAC | -0.203 |

| Sequence | PBM E-score |
| --- | --- |
| ACCCAGTG | -0.159 |
| AAGGAAAC | 0.119 |
| AATGCATT | -0.0302 |
| ATCCAACG | -0.237 |
| AGATATGC | -0.04 |
| AAGCGTCC | -0.186 |
| CAGCAGAG | -0.117 |
| CTTTACAC | 0.0646 |
| GCTGGCCC | -0.298 |
| TCGTTGAA | 0.0706 |
| AAATCCTC | -0.218 |
| ATAACTCC | -0.108 |
| CAAAGAGA | -0.0223 |
| ACTTGTGC | -0.0315 |
| AAGGTACA | -0.0874 |
| CGCTAAAG | 0.0823 |
| AAAAGTCA | 0.0186 |
| ATATTCCA | 0.16 |
| CGCAGACA | 0.178 |
| CATAGTGA | -0.301 |
| ATGGTCAA | 0.123 |
| CATCCCAG | -0.172 |

| Sequence | PBM E-score |
| --- | --- |
| CTAGGTAC | -0.143 |
| ACCGAGCT | -0.188 |
| GGATGCCC | -0.245 |
| CATATACA | 0.21 |
| GCGCTGAC | -0.0446 |
| ATGACGGC | 0.136 |
| CGAGGAAA | 0.05 |
| CTATTTTC | 0.151 |
| CTGCACCC | -0.284 |
| ACTTAATC | -0.0748 |
| ACGATTGC | 0.129 |
| GTCAGTCA | -0.132 |
| CTGTATAC | 0.0428 |
| GTCACCTA | -0.204 |
| AGGTTTTC | -0.0802 |
| AATTCGGT | 0.217 |
| ACCTTAAA | 0.0365 |
| AGCCTAGG | -0.245 |
| ATACACAT | 0.16 |
| GTACAGCA | 0.00339 |
| ACAGATAC | 0.0916 |
| GGTATCAC | -0.181 |

| Sequence | PBM E-score |
| --- | --- |
| GGCATCAC | 0.289 |
| ATCGGTCA | -0.0278 |
| CATTATCG | 0.00751 |
| CTACGTAC | 0.0116 |
| ACGGAACC | 0.129 |
| CTGGTGAA | -0.202 |
| GACGGTTA | -0.201 |
| GAATAATA | 0.15 |
| ACAAGGAT | 0.0271 |
| AAAGCACT | -0.0405 |
| AATACGCC | 0.24 |
| CTCTGCAC | -0.0925 |
| CCGCTATC | 0.0315 |
| CGTCCCCA | -0.199 |
| GGATTTGA | 0.014 |
| ACGGGGGA | -0.267 |
| ACGACCCG | -0.109 |
| CCATCGCC | 0.0827 |
| CACGGTGC | 0.212 |
| CCTATACA | -0.0311 |
